{
  "source": "PubChem BioAssay AID1347120",
  "about": "(National Center for Advancing Translational Sciences (NCATS), 2019)",
  "note": "In all, about 390,000 compounds went through this assay and about 930 (0.24%) were called active. The shares of active, inactive and inconclusive entries below differ from those in the screen. Calls come from the whole dose curve; as a rule, active = well fitted activation curve with a large enough effect; inconclusive = small, poorly fitted or top-dose-only effect; inactive = no such curve, though single readings can be large or run the other way. A potency beside an inconclusive call is a rough fit, not a confirmed value. Potency is the fitted concentration of half-maximal effect; tags give direction and shape of the fitted curve.",
  "data": [
    {"experiment": "qHTS for Suppressors of FUS Proteinopathy: Primary screen using FUS-linked yeast assay; note: nearly all actives have a fitted effect of over 55% in size;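 for growth rescue (activation): plate controls were DMSO vehicle for no effect and reference control for full effect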", "conditions": "S. cerevisiae FUS-expressing, OD600, 24 h; Potency: growth rescue; growth rescue (activation): at 76.6 µM (top of the series)", "method_in_brief": "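Quantitative HTS measuring growth restoration of FUS-toxic yeast. Galactose-induced cells (OD 0.005) were exposed 24hr at 30C to compounds at several concentrations, then absorbance at 600 nm was recorded.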", "values": [
      {"smiles": "CCCCNC(=O)CSc1nc2n[nH]c(C)c2c(=N)n1-c1ccccc1CC", "growth rescue (activation)": "inactive: 17.2%"},
      {"smiles": "CC(=O)c1cccc(Nc2nc3ccccc3n3cnnc23)c1", "Potency": "inconclusive: 44.7 µM [activator, partial curve, poor fit]"},
      {"smiles": "COc1ccc(OCC(O)CN2CCN(c3ccccc3)CC2)cc1", "note": "(centres undefined)", "growth rescue (activation)": "inactive: 27.6%"},
      {"smiles": "Cc1ccc(-c2nnc(SCC(=O)N3CCCC3)o2)cc1C", "Potency": "inconclusive: 6.31 µM [activator, single point]"},
      {"smiles": "Cc1cc(C(=O)CN2C(=O)C(=O)N(Cc3ccco3)C2=O)c(C)n1CCc1ccc(F)cc1", "Potency": "inconclusive: 17.8 µM [activator, partial curve]"},
      {"smiles": "CCc1nc2ccc(C(=O)Nc3cccc(OC)c3)cn2c1N(C)CCCc1ccccc1", "Potency": "inconclusive: 31.6 µM [activator, single point]"},
      {"smiles": "COc1cc(-c2cc3nc(NCCc4ccncc4)ccn3n2)cc(OC)c1OC", "growth rescue (activation)": "inactive: -2.01%"},
      {"smiles": "COC(=O)[C@]12C[C@H](CC(=O)N3CCN(C(=O)c4ccco4)CC3)C(=O)N(Cc3ccco3)C1=C[C@H](C(C)C)O[C@@H]2C1CC1", "Potency": "inconclusive: 28.2 µM [activator, partial curve, poor fit]"},
      {"smiles": "CC(C)N1CC2(CC(c3ccccc3F)=NO2)CN1C(=O)c1ccc(C(C)(C)C)cc1", "note": "(centres undefined)", "Potency": "inconclusive: 25.1 µM [activator, single point]"},
      {"smiles": "CCOC(=O)c1noc2ncn(CC(=O)O)c(=O)c12", "growth rescue (activation)": "inactive: -24.1%"},
      {"smiles": "Cc1noc(/C=C/N(C)C)c1S(=O)(=O)N1CCCC(C(=O)NCc2ccco2)C1", "note": "(centres undefined)", "Potency": "inconclusive: 31.6 µM [activator, single point]"},
      {"smiles": "COC(=O)[C@]12CCCCC=C1N(Cc1ccc(OC)cc1)C(=O)[C@@H]2CC(=O)NCC1CCCCC1", "growth rescue (activation)": "inactive: 34.2%"},
      {"smiles": "COc1cccc(-c2nc(CS(=O)CC(=O)N3CCN(c4cccc(C(F)(F)F)c4)CC3)c(C)o2)c1", "note": "(centres undefined)", "Potency": "inconclusive: 35.5 µM [activator, single point]"},
      {"smiles": "COc1ccc(CCNC(=O)C(=O)NCC(c2cccs2)S(=O)(=O)c2ccccc2)cc1", "note": "(centres undefined)", "growth rescue (activation)": "inactive: 0.75%"},
      {"smiles": "COc1ccc(C2CC(=O)N3CN(C4CCCCC4)CSC3=C2C#N)cc1", "note": "(centres undefined)", "Potency": "inconclusive: 35.5 µM [activator, single point]"},
      {"smiles": "Cc1ccc(Cn2c(=O)c3ccccc3n3c(-c4ccccc4)nnc23)cc1", "growth rescue (activation)": "inactive: -20.4%"},
      {"smiles": "Nc1nc(SCC(=O)N2N=C3/C(=C\\c4ccco4)CCCC3C2c2ccco2)n[nH]1", "note": "(centres undefined)", "Potency": "active: 31.6 µM"},
      {"smiles": "c1ccc(CN2CCN(c3ncnc4sccc34)CC2)cc1", "growth rescue (activation)": "inactive: -3.19%"},
      {"smiles": "Cc1cccc(NC(=S)N2CCC(c3nc4ccccc4o3)CC2)c1C", "Potency": "inconclusive: 25.1 µM [activator, partial curve, poor fit]"},
      {"smiles": "C[C@@H]1CCN(C2CC2)S(=O)(=O)c2c(cccc2N2CC[C@H](N(C)C)C2)O1", "growth rescue (activation)": "inactive: -4.82%"},
      {"smiles": "COc1ccc(-n2c(=O)c3c4c(sc3n(Cc3cc(=O)n5c(C)cccc5n3)c2=O)CCC4)c(OC)c1", "Potency": "inconclusive: 39.8 µM [activator, single point]"},
      {"smiles": "CCc1ccc(-n2c(C)nc3cc(C(=O)NCCc4ccccc4)ccc32)cc1", "Potency": "inconclusive: 35.5 µM [activator, single point]"},
      {"smiles": "CC(=O)Nc1cccc(-c2ccnc3c2CC(C(=O)Nc2cccc(Oc4ccccc4)c2)O3)c1", "note": "(centres undefined)", "Potency": "inconclusive: 28.2 µM [activator, single point]"},
      {"smiles": "CC(=O)N1CCCc2cc(S(=O)(=O)N3CCCC(C(=O)NCc4ccc(Cl)cc4)C3)ccc21", "note": "(centres undefined)", "Potency": "inconclusive: 35.5 µM [activator, single point]"},
      {"smiles": "Cc1nc(N2CCCC2)ncc1C(=O)Nc1ccccc1", "growth rescue (activation)": "inactive: -15.6%"},
      {"smiles": "CCCCCC(=O)NNC(=O)Cc1ccc([N+](=O)[O-])cc1", "growth rescue (activation)": "inactive: 22.3%"},
      {"smiles": "COc1ccccc1C(=O)Nc1nc2ccccc2s1", "growth rescue (activation)": "inactive: 11.6%"},
      {"smiles": "COc1cc2c(cc1OC)CN(C(=O)C1CCN(S(=O)(=O)c3ccccc3F)CC1)CC2", "Potency": "inconclusive: 50.1 µM [activator, single point]"},
      {"smiles": "Cc1oc2cc(O)ccc2c(=O)c1-c1nncn1-c1ccccc1", "Potency": "inconclusive: 35.5 µM [activator, single point]"},
      {"smiles": "CCN(C[C@H]1N[C@@](Cc2ccccc2)(C(=O)OC)[C@H]2C(=O)N(C)C(=O)[C@@H]12)S(=O)(=O)c1ccc(C(F)(F)F)cc1", "Potency": "inconclusive: 15.8 µM [activator, partial curve, poor fit]"},
      {"smiles": "Cc1nc2nc(SCC(=O)NC(C)c3ccccc3)nn2c(C)c1Cc1c(F)cccc1Cl", "note": "(centres undefined)", "Potency": "inconclusive: 39.8 µM [activator, single point]"},
      {"smiles": "COc1ccc(CCNC(=O)C(C)Sc2ccccc2)cc1OC", "note": "(centres undefined)", "growth rescue (activation)": "inconclusive: 54.4% [activator]"},
      {"smiles": "O=C(CSc1oc(-c2ccco2)nc1S(=O)(=O)c1ccc(Cl)cc1)c1ccccc1", "Potency": "inconclusive: 31.6 µM [activator, single point]"},
      {"smiles": "COC(=O)c1ccc(NC(=O)CC2C(=O)N(c3cccc(OC)c3)C(=O)N2Cc2cccc(OC)c2)cc1", "note": "(centres undefined)", "Potency": "inconclusive: 50.1 µM [activator, single point]"},
      {"smiles": "CCOc1ccc(CCNC(=O)c2cc3c(-c4cccc(OC)c4)nn(C)c3s2)cc1OCC", "Potency": "inconclusive: 28.2 µM [activator, single point]"},
      {"smiles": "COC(=O)[C@]12CCCCC=C1N(Cc1ccc3c(c1)OCO3)C(=O)[C@H](CC(=O)NCC13CC4CC(CC(C4)C1)C3)C2", "Potency": "inconclusive: 35.5 µM [activator, single point]"},
      {"smiles": "CC1CCCN(S(=O)(=O)c2ccc(C(=O)Nc3nnc(C4CC4)o3)cc2)C1", "note": "(centres undefined)", "Potency": "inconclusive: 25.1 µM [activator, single point]"},
      {"smiles": "COc1ccc(-c2cccc(NS(=O)(=O)c3cc(C)c(Cl)cc3C)c2)nn1", "Potency": "inconclusive: 35.5 µM [activator, partial curve, poor fit]"},
      {"smiles": "COc1ccccc1CC(=O)N1CCN(S(=O)(=O)c2cccs2)CC1", "growth rescue (activation)": "inactive: 14.5%"},
      {"smiles": "COc1ccccc1C(=O)COC(=O)c1c(-c2ccccc2)noc1C", "Potency": "inconclusive: 15.8 µM [activator, partial curve, poor fit]"},
      {"smiles": "Cc1nn2c(-c3cccc(NC(=O)CSc4nc5ccccc5o4)c3)nnc2c2ccccc12", "Potency": "inconclusive: 17.8 µM [activator, partial curve, poor fit]"},
      {"smiles": "CCOc1ccc(NS(=O)(=O)c2ccc(C(=O)N(C)Cc3cccc(OC)c3OC)cc2)cc1", "Potency": "active: 22.4 µM"},
      {"smiles": "Cc1cc(NC2CCCCC2)nc(NCc2ccccc2)n1", "Potency": "inconclusive: 20 µM [activator, partial curve]"},
      {"smiles": "CCCn1nc(C(=O)Nc2nc(-c3ccccn3)cs2)c2ccccc2c1=O", "growth rescue (activation)": "inactive: 16.3%"},
      {"smiles": "CCCCCOc1ccc(C(=O)N(Cc2ccccc2)C2CCS(=O)(=O)C2)cc1", "note": "(centres undefined)", "Potency": "inconclusive: 31.6 µM [activator, single point]"},
      {"smiles": "COc1ccc(NC(=O)Nc2ccc3c(c2)C(=O)N([C@H](C)CO)C[C@H](C)[C@@H](CN(C)Cc2ccc(Cl)c(Cl)c2)OCCCC[C@@H](C)O3)cc1", "Potency": "inconclusive: 25.1 µM [activator, partial curve, poor fit]"},
      {"smiles": "CCOC(=O)c1cccc(NC(=O)c2sc3nc[nH]c(=O)c3c2C)c1", "growth rescue (activation)": "inactive: 9.79%"},
      {"smiles": "O=C(OCCOc1ccccc1Cl)c1cc(S(=O)(=O)N2CCCCC2)ccc1N1CCOCC1", "Potency": "inconclusive: 25.1 µM [activator, single point]"},
      {"smiles": "CCc1cc2c(=O)n(Cc3ccco3)c(SCC(=O)N3CCCc4ccccc43)nc2s1", "Potency": "inconclusive: 50.1 µM [activator, single point]"},
      {"smiles": "Cc1ccc2c(c1)[C@H]1[C@H](CO2)[C@H](c2ccccc2)[C@]2(C)C(=O)N(Cc3ccco3)CC(=O)N12", "Potency": "inconclusive: 22.4 µM [activator, partial curve]"},
      {"smiles": "O=C(/C=C/c1ccnc2ccccc12)c1cccs1", "growth rescue (activation)": "inactive: 6.8%"},
      {"smiles": "Cc1c(C(=O)N2CCOCC2)sc(NC(=O)c2ccc([N+](=O)[O-])cc2)c1C#N", "growth rescue (activation)": "inactive: -15.4%"},
      {"smiles": "COc1ccc2[nH]c3c(=O)n(CCCCC(=O)N4CCCC4)c(=S)[nH]c3c2c1", "Potency": "active: 39.8 µM"},
      {"smiles": "CCOc1cccc2sc(N(CCCN(C)C)C(=O)c3ccc(C(=O)c4ccccc4)cc3)nc12", "Potency": "inconclusive: 22.4 µM [activator, partial curve, poor fit]"},
      {"smiles": "O=C(OCc1nnc(-c2ccc([N+](=O)[O-])cc2)o1)C1CCN(C(=O)c2ccc(Cl)cc2)CC1", "Potency": "inconclusive: 2.82 µM [activator, full curve, poor fit]"},
      {"smiles": "CCCCCCCn1c(=O)c(C(=O)OC)c(N)c2ccccc21", "Potency": "inconclusive: 28.2 µM [activator, partial curve, poor fit]"},
      {"smiles": "COc1ccc(CNC(=O)N2CCN(S(=O)(=O)c3ccccc3)CC2)cc1", "growth rescue (activation)": "inactive: -15.6%"},
      {"smiles": "Cc1ccc(N(C(=O)c2ccco2)C(C(=O)NC2CCCC2)c2ccco2)c(C)c1", "note": "(centres undefined)", "Potency": "inconclusive: 10 µM [activator, partial curve]"},
      {"smiles": "COc1cccc(CNC(=O)CSc2n[nH]c(-c3ccccc3Cl)n2)c1", "growth rescue (activation)": "inactive: -10.1%"},
      {"smiles": "O=C(c1ccccc1)N1CCN(C2c3cccc4cccc(c34)C2NS(=O)(=O)c2ccccc2)CC1", "note": "(centres undefined)", "Potency": "inconclusive: 5.01 µM [activator, full curve, poor fit]"},
      {"smiles": "COc1cccc(N=c2oc3cc(O)ccc3cc2C(=O)NCC2CCCO2)c1", "note": "(centres undefined)", "growth rescue (activation)": "inactive: 8.21%"},
      {"smiles": "O=C(/C=C/c1ccc2ccccc2n1)N1CCN(S(=O)(=O)c2ccc(F)cc2)CC1", "Potency": "inconclusive: 35.5 µM [activator, single point]"},
      {"smiles": "Cc1ccc(-c2cc(C(=O)Nc3cccnc3)c3ccccc3n2)o1", "Potency": "active: 3.16 µM"},
      {"smiles": "COc1ccc(NC(=O)c2ccc3c(c2)CCN3S(=O)(=O)c2ccccc2)cc1", "Potency": "inconclusive: 35.5 µM [activator, single point]"}
    ]}
  ]
}
